Screen size: about 420,000 compounds; about 64,000 (15%) were called active. The shares of active, inactive and inconclusive entries below differ from those in the screen. Calls come from the whole dose curve; as a rule, active = well fitted inhibition curve with a large enough effect; inconclusive = small, poorly fitted or top-dose-only effect; inactive = flat fitted curve, though single readings scatter. No potency is given beside an inconclusive call; the fits are too rough.
Experiment: qHTS for Inhibitors of human tyrosyl-DNA phosphodiesterase 1 (TDP1): qHTS in cells in absence of CPT; note: nearly all actives have a fitted effect of over 55% in size
Conditions: DT40 Tdp1-/- hTDP1 cells, no CPT, ATP luminescence, 48 h; activity change, negative = growth inhibition: at 46.2 µM (top of the series) unless noted
Outline: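 Growth kinetics read by CellTiter-Glo luminescence after ≥48 hr at 37 °C. Cells: DT40 Tdp1-/- stably carrying human TDP1, 400 per well, compound exposure in the absence of CPT (DMSO vehicle).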
% is set by controls: 0 for no effect and ±100 for the full control effect; potency is the fitted concentration of half-maximal effect; tags give direction and shape of the fitted curve.

Question: For `CC(=O)Nc1ccc(NC(=O)CN2C(=O)NC3(CCCCCCC3)C2=O)cc1`, which Potency is on record?
Answer: inconclusive [inhibitor, partial curve]

Question: Which Potency does the source give for `CC(C)C(NC(=O)c1ccccc1)C(=O)N1CCN(C/C=C/c2ccccc2)CC1` (configuration not stated) here?
Answer: inconclusive [inhibitor, single point]

Question: Which “activity change, negative = growth inhibition” value does the source give for `O=C(CNC(=O)C12CC3CC(CC(C3)C1)C2)OCc1ccc(F)cc1Cl` here?
Answer: inactive: 13.8%

Question: Which Potency does the source give for `CC1(C(=O)NCc2ccccc2Br)CCN1Cc1ccccc1OC(F)F` (configuration not stated) here?
Answer: active: 23.1 µM

Question: For `CCCS(=O)(=O)NC(=O)C1(C)CCCN(C(=O)c2ccco2)C1` (configuration not stated), which “activity change, negative = growth inhibition” value is on record?
Answer: inactive: 5.97%

Question: For `Cc1ccc(C)c(N2N=C(C(=O)Nc3ccccc3N3CCCC3)CCC2=O)c1`, which Potency is on record?
Answer: active: 20.6 µM

Question: With `Cc1ccccc1-c1nc(CN2CCC(C(=O)NCCCN3CCOCC3)CC2)c(C)o1` as the compound, how does the “activity change, negative = growth inhibition” value read?
Answer: inactive: -6.3%

Question: With `OCCNc1nc(N2CCCCC2)nc2ccccc12` as the compound, how does the “activity change, negative = growth inhibition” value read?
Answer: inactive: -13.7%

Question: For `O=c1cc(Nc2ccc3c(c2)OCCO3)[nH]c(=O)n1C1CCCCC1`, which Potency is on record?
Answer: active: 16.4 µM

Question: Which Potency does the source give for `COc1cc(NC(=O)COc2ccccc2)ccc1NC(=O)c1ccco1` here?
Answer: inconclusive [inhibitor, single point]

Question: For `CC(=O)N1N=C(c2cccs2)CC1c1cccs1` (configuration not stated), which Potency is on record?
Answer: inconclusive [inhibitor, partial curve, poor fit]

Question: Which Potency does the source give for `COC(=O)c1ccccc1NC(=S)NC(=O)c1cccc2ccccc12` here?
Answer: inconclusive [inhibitor, single point]

Question: Which “activity change, negative = growth inhibition” value does the source give for `CC(C)C(=O)c1cn(CC(=O)NCc2ccco2)c2ccccc12` here?
Answer: inactive: -17.4%

Question: For `CN(CCC1CCOCC1)Cc1cn[nH]c1-c1ccc(-c2ccccc2)cc1`, which Potency is on record?
Answer: inconclusive [inhibitor, single point]

Question: Which “activity change, negative = growth inhibition” value does the source give for `COc1ccccc1NS(=O)(=O)c1cccc(C(=O)NCC(c2ccco2)N(C)C)c1` (configuration not stated) here?
Answer: inactive: -2.23%

Question: For `CC(=O)N1C(O)CC(C)N1c1ccccc1` (configuration not stated), which “activity change, negative = growth inhibition” value is on record?
Answer: inactive: -0.0382%

Question: For `COc1ccc(NC(=O)Cn2cc(S(=O)(=O)c3ccc(C)cc3)c(=O)c3ccccc32)cc1OC`, which Potency is on record?
Answer: inconclusive [inhibitor, single point]

Question: For `CCc1ccc(NC(=O)[C@H](C)NC(=O)C2CCN(C(=O)[C@@H](N)Cc3ccccc3)CC2)cc1`, which Potency is on record?
Answer: active: 16.4 µM

Question: Which Potency does the source give for `O=C1N=c2ccccc2=C1c1c(O)n(-c2cccc(F)c2)[nH]c1=O` here?
Answer: inconclusive [inhibitor, single point]

Question: Which “activity change, negative = growth inhibition” value does the source give for `Cc1ccc(S(=O)(=O)N(C)C[C@@H]2OCc3cnnn3CCCC(=O)N([C@H](C)CO)C[C@@H]2C)cc1` here?
Answer: inactive: -21.8%

Question: With `N#C/C(=C/c1ccc(O)c(O)c1)C(=O)NCc1ccc(Cl)cc1` as the compound, how does the Potency read?
Answer: inconclusive [inhibitor, partial curve, poor fit]

Question: For `COc1ccc(CN(C)C(=O)C(Cc2ccccc2)NC(=O)c2ccccc2)c(OC)c1` (configuration not stated), which Potency is on record?
Answer: active: 20.6 µM

Question: With `COc1coc(C(O)C[N+](=O)[O-])cc1=O` (configuration not stated) as the compound, how does the Potency read?
Answer: inconclusive [inhibitor, single point]

Question: For `Cc1ccc(CSCC(=O)NCc2ccc(F)cc2)cc1`, which Potency is on record?
Answer: inactive

Question: Which activity change, negative = growth inhibition does the source give for `CCOC(=O)c1c(NC(=O)CCN2C(=O)c3cccc([N+](=O)[O-])c3C2=O)sc(C(=O)OC(C)C)c1C` here?
Answer: inconclusive: -37.8% [inhibitor]

Question: Which “activity change, negative = growth inhibition” value does the source give for `COCCCNC(=O)Cn1c(=O)n(CCCCCC(=O)NCc2ccc3c(c2)OCO3)c(=O)c2sccc21` here?
Answer: inactive: -0.0848%

Question: For `COc1ccc(NC(=O)CSc2ccc3nnc(CCNC(=O)c4ccccc4)n3n2)cc1OC`, which “activity change, negative = growth inhibition” value is on record?
Answer: inactive: -3.16%

Question: Which Potency does the source give for `CCc1nnc(SCC(=O)N(C)c2ccccc2)c2cc3sccc3n12` here?
Answer: inconclusive [inhibitor, single point]

Question: Which Potency does the source give for `COc1ccc(-c2cc3nc(NCCOc4ccccc4)ccn3n2)cc1` here?
Answer: inconclusive [inhibitor, single point]

Question: Which Potency does the source give for `CCOC(=O)c1cccc(NC(=O)CCc2c(C)nc3cc(-c4ccc(Cl)cc4)nn3c2C)c1` here?
Answer: active: 16.4 µM

Question: Which Potency does the source give for `CN(C)CCN(C(=O)c1cccc2ccccc12)c1nc2cc3c(cc2s1)OCO3` here?
Answer: inconclusive [inhibitor, partial curve]

Question: For `O=C(NCCc1nnc2ccc(NCCCN3CCOCC3)nn12)c1ccccc1F`, which “activity change, negative = growth inhibition” value is on record?
Answer: inactive: 2.41%

Question: With `CCCN(CCC)CCCNc1ccc(C(=O)Nc2cccc(OC)c2)cc1[N+](=O)[O-]` as the compound, how does the Potency read?
Answer: inconclusive [inhibitor, single point]

Question: For `CC(C)C(=O)N1CCN(c2ccc([N+](=O)[O-])cc2Cl)CC1`, which Potency is on record?
Answer: inconclusive [inhibitor, single point]

Question: With `CCOC(=O)C1(Cc2cccc(F)c2)CCN(Cc2nc(CC)[nH]c2C)CC1` as the compound, how does the Potency read?
Answer: active: 23.1 µM

Question: With `OC(c1ccc(F)c(F)c1)c1nc(-c2cccs2)cs1` (configuration not stated) as the compound, how does the Potency read?
Answer: inconclusive [inhibitor, single point]

Question: With `CCn1c(C)nc2cc(C(=O)OCCC(F)(F)F)ccc21` as the compound, how does the Potency read?
Answer: inconclusive [inhibitor, single point]

Question: Which “activity change, negative = growth inhibition” value does the source give for `O=C(COC(=O)CCC(=O)c1ccc(Cl)cc1)NC1CC1` here?
Answer: inactive: -9.61%

Question: Which “activity change, negative = growth inhibition” value does the source give for `CN1CCCN(S(=O)(=O)c2ccccc2)c2nc3ccccc3nc21` here?
Answer: inactive: -30.2%

Question: For `Cc1cccc(-n2c(SCC(=O)c3c(N)n(C4CC4)c(=O)[nH]c3=O)nnc2N2CCOCC2)c1`, which “activity change, negative = growth inhibition” value is on record?
Answer: inactive: -20.1%

Question: Which Potency does the source give for `O=C(N/N=C/c1coc2ccccc2c1=O)c1cc(O)cc(O)c1` here?
Answer: inconclusive [inhibitor, partial curve, poor fit]

Question: With `CCOc1ccc(C(CCc2ccccc2)NC(=O)c2ccc(OC)c(OC)c2)cc1OCC` (configuration not stated) as the compound, how does the Potency read?
Answer: inconclusive [inhibitor, partial curve, poor fit]

Question: Which Potency does the source give for `CCCn1c(=O)n(-c2cc(Cl)c(OC)cc2OC)c(=O)c2c3c(sc21)CN(C(C)=O)CC3` here?
Answer: inconclusive [inhibitor, partial curve, poor fit]

Question: Which “activity change, negative = growth inhibition” value does the source give for `CC1CCOC2(O1)C(=O)Nc1ccccc12` (configuration not stated) here?
Answer: inactive: 6.83%

Question: Which Potency does the source give for `CS(=O)(=O)c1ccc(C(=O)Nc2cccc(-c3nc4ccccc4[nH]3)c2)cc1` here?
Answer: active: 25.9 µM

Question: For `COc1ccccc1/C=C/C(=O)NC(=S)NCC1CCCO1` (configuration not stated), which Potency is on record?
Answer: inconclusive [inhibitor, single point]

Question: With `C=CCc1ccc(OCC(O)CN2CCN(c3ccccc3)CC2)c(OC)c1` (configuration not stated) as the compound, how does the Potency read?
Answer: inconclusive [inhibitor, partial curve, poor fit]

From PubChem BioAssay AID686978 (National Center for Advancing Translational Sciences (NCATS), 2013)
